Measured values published in the supplement of paper PMC11417369.
± gives the standard deviation of the averaged measurements. The list shows a part of the results.

These sequences were tested on PfAP2-LT AP2 domain (GST-tagged) (assay: gcPBM binding intensity (ln(normalized median fluorescence intensity)); higher = stronger DNA binding).
Method in brief: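 Alexa488 anti-GST antibody, scanned at 488 nm, detected GST-tagged P. falciparum DNA-binding domains that had been expressed in E. coli and incubated for 1 h on an Agilent 4 × 180k array. The array carried primer-extended double-stranded 36-bp intergenic genomic probes and negative controls. Binding intensity is the highest Masliner-normalised natural-log median intensity across replicate spots of either orientation of each probe.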

| Sequence | gcPBM binding intensity (ln) |
| --- | --- |
| TTTTGTATTTTTCACACACACATAAGTAAACAATAA [CACACA_site1899] | 9.21 ± 0.47 |
| TACAAGAACAAAAAATGTACGAAATAATTACAAATA [XGTACX_site5824] | 8.84 ± 0.56 |
| AATCTTTTTAAATCTTGATTAATTTCGGGTATATAT [TGCATGCA_negctrl_site107] | 8.57 ± 0.42 |
| ATGTTGTGGATATATACACACATACATATTTATATA [CACACA_site6857] | 8.97 ± 0.38 |
| AAACATATGGTATTTAAACACACAAAAAAGAAAGAA [CACACA_site8239] | 9.22 ± 0.54 |
| ATACAATAATATAAATGTACAAATTATATCTTCATT [XGTACX_site8994] | 8.79 ± 0.4 |
| AAATTAAATATTATATTAATTCTTAAATTTTTTTTT [CACACA_negctrl_site439] | 7.9 ± 0.48 |
| TAGCATGATTTGCCTTGTACACAACCGTTTTAATAA [XGTACX_site7911] | 8.73 ± 0.43 |
| AAGTGTTCTTGTTATACACACACATATATATATATA [CACACA_site8251] | 9.45 ± 0.099 |
| TATGATAAATATGGAGCACACACACCGAAACATACA [CACACA_site8031] | 9.73 ± 0.25 |
| TATTATATATAATATTGTACATTAAAATATTAAAGA [XGTACX_site3698] | 8.41 ± 0.39 |
| TTTATTTTAAAATATAGTACGCAAATAAAAATAAAT [XGTACX_site7783] | 8.63 ± 0.48 |
| GGAACGTTCATATTTCCACACACAAAAAATAAATAT [CACACA_site9101] | 9.31 ± 0.57 |
| ATATGTATTAAGTGTACACATATAATGGGTTTTCTT [CACACA_site5328] | 8.96 ± 0.38 |
| GAAAAAAAAATACATACACACAATATATTTATTTAT [CACACA_site3124] | 8.96 ± 0.43 |
| TAATTATATAAATACACACACATACACCCAAATAAA [CACACA_site5819] | 9.8 ± 0.2 |
| TATATACTATATATATGTACACAAAATTATTTTGAA [XGTACX_site8232] | 8.53 ± 0.38 |
| ATATGTAGTGTTATTTGTTCATTGTTTTAATTTTTA [CACACA_negctrl_site1394] | 8.87 ± 0.38 |
| ATGTATATTTTTATGTGTACGTAATAAAACATAATA [XGTACX_site7777] | 8.83 ± 0.41 |
| TTATTTTTTTTTAGAGCACACATTTTTAATAAGGTA [CACACA_site2133] | 8.57 ± 0.47 |
| AATATGGGCATACATGTGCACTTTTTCCCGTGGTTT | 9.02 ± 0.45 |
| ACGAAAAGATATATATGTACATATATTAAAAAAAAA [XGTACX_site1517] | 8.78 ± 0.45 |
| TTAATTAAATATAGGGGTACATATTATATATGTTTT [XGTACX_site3677] | 8.91 ± 0.39 |

| Sequence | gcPBM binding intensity (ln) |
| --- | --- |
| AAATATTTCTGCAAGGTGCACTTTATAAATCTTTGA | 8.71 ± 0.41 |
| AAGAAATTTATTTATTGTACAATATATAATTTGTTT [XGTACX_site2478] | 8.61 ± 0.4 |
| TTATATGCATATTTTTGTACACAACATTGTTGTATA [XGTACX_site8707] | 8.93 ± 0.37 |
| TTTTGTTAACATATAGAAAAGAACAAAGTTAAAAAG [XGTACX_negctrl_site462] | 8.64 ± 0.54 |
| TTCGTATGCATGAAATGTACATGATATTATTATAAA [XGTACX_site4542] | 8.67 ± 0.37 |
| TATAAATTTGTTCAATGTACATGTAAAGATATAATC [XGTACX_site371] | 8.86 ± 0.44 |
| ACCAATCCAAAAGAATGTACCCATGTTTTAAAATAT [XGTACX_site2907] | 8.79 ± 0.39 |
| TGAAGCAAAAACAAAACACACATATAAATAAATAAA [CACACA_site3925] | 9.15 ± 0.52 |
| TTATTTTTTATAAAATGTACATATATTTTAAATATA [XGTACX_site4026] | 8.27 ± 0.47 |
| ATCTTAGTTGAAATATAGAATTTATAATAAAAGTTA [GTGCAC_negctrl_site122] | 8.3 ± 0.38 |
| TATGTATAAAAATAATGTACAAAATATATTATATGT [XGTACX_site2794] | 8.84 ± 0.4 |
| ATACTATAATAATACACACTCATTAGATATATAAAG [CACACA_site7787] | 8.88 ± 0.47 |
| AAAAAACAAAAAAATACACACATAAAAAGGTTTTAG [CACACA_site3584] | 9.02 ± 0.51 |
| TTATAAGATGATTATAAAATCAAATTCATTCTTTTA [CACACA_negctrl_site1338] | 8.13 ± 0.49 |
| AAATATGTCAAATATACACACATAATAAATATAATA [CACACA_site2310] | 9.13 ± 0.49 |
| TAAACATAACAAAGGAGTACAAAACTTGATCAGTTC [XGTACX_site3114] | 8.98 ± 0.52 |
| TGTACAAATATGTACACACACACATATTTATTTATA [CACACA_site6419] | 9.48 ± 0.3 |
| ATATTTTATTTTTAAAGTACAAAAGAAAAGAATAAT [XGTACX_site8247] | 8.48 ± 0.49 |
| GATTTACATTTTGATGAAAATAATAAAATGTGGAAA [TGCATGCA_negctrl_site409] | 8.51 ± 0.46 |
| AAAAAAAAAGACAAAAGTACAAAGGTTCATAATTTA [XGTACX_site3978] | 8.76 ± 0.57 |
| AACATCAAAATATGCACACAAACAATTAGCGGTAGT [CACACA_site2521] | 9.44 ± 0.38 |
| GAAATGGGTAAACATACACACACACCGATATATATA [CACACA_site8610] | 9.87 ± 0.23 |
